Data published in paper PMC5562746.
These are yes or no findings as the source states them, for the method shown. For some of these results: In cells and extracts the contact can be indirect. Some binding calls cover weakened binding; strength is not graded here. For some of these results: Where a sequence is shown, tags or fusion partners need not be part of it.

The chains behind the UniProt entries cited, without tags or fusion partners.
UniProt O60566: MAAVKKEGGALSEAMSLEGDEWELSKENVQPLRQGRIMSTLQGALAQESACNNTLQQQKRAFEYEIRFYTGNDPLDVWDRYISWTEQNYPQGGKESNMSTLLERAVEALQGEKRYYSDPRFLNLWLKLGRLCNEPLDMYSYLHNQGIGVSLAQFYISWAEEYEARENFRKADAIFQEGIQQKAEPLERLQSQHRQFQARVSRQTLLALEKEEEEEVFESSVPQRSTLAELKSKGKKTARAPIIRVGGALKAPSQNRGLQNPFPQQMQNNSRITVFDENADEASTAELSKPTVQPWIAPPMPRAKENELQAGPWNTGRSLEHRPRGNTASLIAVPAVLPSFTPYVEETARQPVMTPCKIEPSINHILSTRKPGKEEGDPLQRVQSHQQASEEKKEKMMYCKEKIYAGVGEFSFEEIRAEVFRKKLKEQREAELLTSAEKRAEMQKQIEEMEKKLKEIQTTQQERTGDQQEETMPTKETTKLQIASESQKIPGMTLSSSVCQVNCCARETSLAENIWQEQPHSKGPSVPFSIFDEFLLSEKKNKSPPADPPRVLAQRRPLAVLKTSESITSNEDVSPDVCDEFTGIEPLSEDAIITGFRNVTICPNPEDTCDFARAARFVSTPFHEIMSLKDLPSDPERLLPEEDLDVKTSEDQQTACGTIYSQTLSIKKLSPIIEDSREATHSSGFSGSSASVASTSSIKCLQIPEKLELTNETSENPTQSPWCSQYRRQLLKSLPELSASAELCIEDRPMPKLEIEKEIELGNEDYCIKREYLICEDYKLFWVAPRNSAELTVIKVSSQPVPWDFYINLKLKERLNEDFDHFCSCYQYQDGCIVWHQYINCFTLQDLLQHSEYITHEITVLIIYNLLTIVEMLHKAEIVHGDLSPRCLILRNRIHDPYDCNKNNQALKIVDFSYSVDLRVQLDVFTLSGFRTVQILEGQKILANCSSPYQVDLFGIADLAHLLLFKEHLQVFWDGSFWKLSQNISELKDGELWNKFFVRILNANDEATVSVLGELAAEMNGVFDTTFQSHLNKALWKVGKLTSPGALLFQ
UniProt O14777: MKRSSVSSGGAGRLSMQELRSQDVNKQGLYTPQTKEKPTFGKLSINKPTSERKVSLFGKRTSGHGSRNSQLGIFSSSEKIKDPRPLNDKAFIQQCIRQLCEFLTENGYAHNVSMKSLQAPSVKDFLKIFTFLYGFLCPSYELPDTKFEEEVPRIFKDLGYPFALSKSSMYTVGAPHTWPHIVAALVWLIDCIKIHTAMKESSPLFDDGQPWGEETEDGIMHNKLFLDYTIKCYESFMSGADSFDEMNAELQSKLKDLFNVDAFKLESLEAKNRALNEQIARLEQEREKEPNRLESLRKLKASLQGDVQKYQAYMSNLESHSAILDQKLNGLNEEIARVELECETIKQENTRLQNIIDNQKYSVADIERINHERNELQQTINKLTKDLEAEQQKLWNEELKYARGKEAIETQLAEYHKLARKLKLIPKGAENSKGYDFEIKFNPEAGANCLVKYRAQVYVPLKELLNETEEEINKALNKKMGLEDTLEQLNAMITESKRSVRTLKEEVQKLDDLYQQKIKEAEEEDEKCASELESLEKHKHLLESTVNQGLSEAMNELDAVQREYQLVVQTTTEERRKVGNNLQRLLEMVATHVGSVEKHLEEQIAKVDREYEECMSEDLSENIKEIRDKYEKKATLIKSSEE

T1: GFP-Mps1 (human) (UniProt P33981)
T1 sequence: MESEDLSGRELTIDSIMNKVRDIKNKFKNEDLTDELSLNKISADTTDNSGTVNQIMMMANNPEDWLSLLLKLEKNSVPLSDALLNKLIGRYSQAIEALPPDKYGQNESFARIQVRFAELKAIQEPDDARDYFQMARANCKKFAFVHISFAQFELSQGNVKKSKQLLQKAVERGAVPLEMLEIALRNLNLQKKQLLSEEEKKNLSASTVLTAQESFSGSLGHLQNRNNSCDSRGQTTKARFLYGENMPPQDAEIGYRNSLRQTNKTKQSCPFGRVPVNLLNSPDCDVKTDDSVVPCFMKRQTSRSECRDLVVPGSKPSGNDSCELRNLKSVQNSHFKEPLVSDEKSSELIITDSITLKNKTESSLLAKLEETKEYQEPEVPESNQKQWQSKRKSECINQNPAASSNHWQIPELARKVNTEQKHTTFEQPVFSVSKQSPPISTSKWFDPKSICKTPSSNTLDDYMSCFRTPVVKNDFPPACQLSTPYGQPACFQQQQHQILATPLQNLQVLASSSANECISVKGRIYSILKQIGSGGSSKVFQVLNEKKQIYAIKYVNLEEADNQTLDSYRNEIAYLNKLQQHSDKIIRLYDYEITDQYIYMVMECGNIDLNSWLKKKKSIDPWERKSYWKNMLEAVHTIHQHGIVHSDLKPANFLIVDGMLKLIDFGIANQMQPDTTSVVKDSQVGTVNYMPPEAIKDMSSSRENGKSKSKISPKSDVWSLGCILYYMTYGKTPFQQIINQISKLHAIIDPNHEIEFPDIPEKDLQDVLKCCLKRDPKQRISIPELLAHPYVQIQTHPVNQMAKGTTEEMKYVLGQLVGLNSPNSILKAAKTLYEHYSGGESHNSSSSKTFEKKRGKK

T2: Flag-tagged Mps1 (wild type) (human) (UniProt P33981)
T2 sequence: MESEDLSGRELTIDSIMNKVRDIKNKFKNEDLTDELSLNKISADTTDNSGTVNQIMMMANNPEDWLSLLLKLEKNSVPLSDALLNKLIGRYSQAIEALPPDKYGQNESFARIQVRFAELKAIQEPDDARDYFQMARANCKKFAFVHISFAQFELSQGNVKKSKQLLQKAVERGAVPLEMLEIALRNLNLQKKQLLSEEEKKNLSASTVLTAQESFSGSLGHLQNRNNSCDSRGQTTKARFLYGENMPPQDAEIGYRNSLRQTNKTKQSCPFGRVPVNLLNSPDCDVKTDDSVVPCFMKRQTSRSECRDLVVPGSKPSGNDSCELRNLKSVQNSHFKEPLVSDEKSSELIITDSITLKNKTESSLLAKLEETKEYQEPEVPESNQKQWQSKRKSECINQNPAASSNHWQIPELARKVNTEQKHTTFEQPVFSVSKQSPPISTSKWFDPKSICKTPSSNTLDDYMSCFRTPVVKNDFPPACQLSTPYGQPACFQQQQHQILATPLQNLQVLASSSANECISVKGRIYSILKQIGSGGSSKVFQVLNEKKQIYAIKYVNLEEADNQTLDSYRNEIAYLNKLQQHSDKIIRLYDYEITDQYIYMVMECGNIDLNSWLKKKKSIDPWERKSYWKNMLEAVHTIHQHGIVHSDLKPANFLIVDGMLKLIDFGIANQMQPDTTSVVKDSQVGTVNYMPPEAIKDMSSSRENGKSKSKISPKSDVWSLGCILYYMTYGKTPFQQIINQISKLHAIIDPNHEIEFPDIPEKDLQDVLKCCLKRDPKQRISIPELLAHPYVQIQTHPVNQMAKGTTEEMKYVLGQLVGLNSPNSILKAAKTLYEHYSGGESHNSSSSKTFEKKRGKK

T3: Flag-tagged Mps1 kinase-dead (D664A) (human) (UniProt P33981)
T3 sequence: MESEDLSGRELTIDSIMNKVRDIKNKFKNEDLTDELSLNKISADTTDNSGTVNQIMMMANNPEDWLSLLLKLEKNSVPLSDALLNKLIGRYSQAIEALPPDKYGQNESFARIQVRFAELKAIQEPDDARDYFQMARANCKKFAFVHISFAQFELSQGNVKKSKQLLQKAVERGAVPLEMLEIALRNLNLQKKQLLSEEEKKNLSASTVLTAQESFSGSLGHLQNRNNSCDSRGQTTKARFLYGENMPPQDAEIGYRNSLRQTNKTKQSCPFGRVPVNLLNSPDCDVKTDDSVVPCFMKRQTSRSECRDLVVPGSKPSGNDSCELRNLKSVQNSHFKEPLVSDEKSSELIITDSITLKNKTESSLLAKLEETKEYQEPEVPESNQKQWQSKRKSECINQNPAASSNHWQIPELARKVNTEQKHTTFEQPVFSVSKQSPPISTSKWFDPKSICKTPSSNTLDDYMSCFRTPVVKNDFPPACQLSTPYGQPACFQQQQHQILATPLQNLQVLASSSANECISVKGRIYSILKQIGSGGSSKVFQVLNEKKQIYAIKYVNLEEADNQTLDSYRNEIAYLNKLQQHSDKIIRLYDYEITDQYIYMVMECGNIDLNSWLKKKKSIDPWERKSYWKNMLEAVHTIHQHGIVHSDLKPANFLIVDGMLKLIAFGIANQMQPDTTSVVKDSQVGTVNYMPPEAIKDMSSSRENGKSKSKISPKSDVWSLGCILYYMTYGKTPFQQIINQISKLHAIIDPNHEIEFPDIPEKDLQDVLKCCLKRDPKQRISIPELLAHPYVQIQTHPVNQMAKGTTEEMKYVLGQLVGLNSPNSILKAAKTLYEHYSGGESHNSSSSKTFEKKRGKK


Assays:
[1] = molecular target: GST-tagged Plk1, full length (human) (UniProt P53350); assay: pull-down; GST-tagged Plk1 constructs bound to glutathione-Sepharose beads incubated with mitotic cell lysates; washes with lysis buffer containing 500 mM and 150 mM NaCl; immunoblotting; only the target purified
GFP-Mps1 (human) = molecular target: T1, GFP-Mps1 (human); assay: co-IP; GFP-Mps1 expressed in HeLa cells, immunoprecipitated with anti-GFP antibody, blot for Hec1; controls and cells treated with reversine and/or BI-2536
[2] = molecular target: T2, Flag-tagged Mps1 (wild type) (human); assay: co-IP; Flag-tagged Mps1 and Plk1 purified from insect cells, immunoprecipitation with anti-Flag antibody; both purified
[3] = molecular target: T3, Flag-tagged Mps1 kinase-dead (D664A) (human); assay: as above

| binding [1] | binding (GFP-Mps1 (human)) | binding [2] | binding [3] | Molecule |
| --- | --- | --- | --- | --- |
| binds | – | – | – | BubR1 (from UniProt O60566 1-1050) |
| – | binds | – | – | Hec1 (from UniProt O14777 1-642) |
| – | – | no binding | no binding | Plk1 (wild type, un-labelled) (from UniProt P53350 1-603) |
| – | – | no binding | no binding | Plk1 kinase-dead (D194A) (from UniProt P53350 1-603) |
| no binding | – | – | – | Mps1 (endogenous) (protein, UniProt P33981 1-857) MESEDLSGRELTIDSIMNKVRDIKNKFKNEDLTDELSLNKISADTTDNSGTVNQIMMMANNPEDWLSLLLKLEKNSVPLSDALLNKLIGRYSQAIEALPPDKYGQNESFARIQVRFAELKAIQEPDDARDYFQMARANCKKFAFVHISFAQFELSQGNVKKSKQLLQKAVERGAVPLEMLEIALRNLNLQKKQLLSEEEKKNLSASTVLTAQESFSGSLGHLQNRNNSCDSRGQTTKARFLYGENMPPQDAEIGYRNSLRQTNKTKQSCPFGRVPVNLLNSPDCDVKTDDSVVPCFMKRQTSRSECRDLVVPGSKPSGNDSCELRNLKSVQNSHFKEPLVSDEKSSELIITDSITLKNKTESSLLAKLEETKEYQEPEVPESNQKQWQSKRKSECINQNPAASSNHWQIPELARKVNTEQKHTTFEQPVFSVSKQSPPISTSKWFDPKSICKTPSSNTLDDYMSCFRTPVVKNDFPPACQLSTPYGQPACFQQQQHQILATPLQNLQVLASSSANECISVKGRIYSILKQIGSGGSSKVFQVLNEKKQIYAIKYVNLEEADNQTLDSYRNEIAYLNKLQQHSDKIIRLYDYEITDQYIYMVMECGNIDLNSWLKKKKSIDPWERKSYWKNMLEAVHTIHQHGIVHSDLKPANFLIVDGMLKLIDFGIANQMQPDTTSVVKDSQVGTVNYMPPEAIKDMSSSRENGKSKSKISPKSDVWSLGCILYYMTYGKTPFQQIINQISKLHAIIDPNHEIEFPDIPEKDLQDVLKCCLKRDPKQRISIPELLAHPYVQIQTHPVNQMAKGTTEEMKYVLGQLVGLNSPNSILKAAKTLYEHYSGGESHNSSSSKTFEKKRGKK |
